Data: PubChem BioAssay (NCATS)
The shares of active, inactive and inconclusive entries below differ from those in the screen. For part of these data: Potencies of inconclusive entries are left out as doubtful fits. Calls of active or inactive are those of the source. Unless noted, calls come from the whole dose curve; as a rule, active = well fitted curve in either direction with a large enough effect (not every such curve was filed as active); inconclusive = small, poorly fitted or top-dose-only effect, or another doubt; inactive = flat fitted curve, though single readings scatter.

Key:
[1] = NFAT Signaling Pathway (AID 444); conditions: Jurkat NFAT-bla M1, carbachol, beta-lactamase ratio, 5 h; at 17.2 µM (top of the series) unless noted;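 note: carbachol stimulus at about its EC50 of 1 µM final; % is set by controls: 0 for no effect and ±100 for the full control effect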
Procedure, shortened: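 Jurkat cells with NFAT-driven β-lactamase reporter and co-expressed M1 receptor, stimulated with carbachol (final 1 uM, ~EC50), compound titration, 5 h at 37 °C. CCF4 loaded 1 h at RT; 460/530 nm ratio gave %activity and AC50.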

[2] = Stat Signaling Pathway (AID 446); conditions: ME-180 SIE beta-lactamase reporter, IL-6 stimulated, 5 h; at 7.69 µM (top of the series) unless noted;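 note: ME-180 cervical cancer cells given 40 pM IL-6 alongside compound; SIE-controlled beta-lactamase reporter measured as 460/530 nm FRET emission ratio; top concentration of the series differs between compounds; % is set by controls: 0 for no effect and ±100 for the full control effect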
Procedure, shortened: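 Normalization used AC90 stimulation (300 pM IL-6) and AC90 inhibition (125 nM pan-JAK inhibitor at 40 pM IL-6). The underlying signal is SIE-driven beta-lactamase in ME-180 cells after 5 h IL-6 exposure with compound.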

[3] = qHTS Assay for Identification of Small Molecule Agonists for Hypoxia Response Element Signaling Pathway (AID 914; active = well fitted activation curve with a large enough effect in the signal ratio, with a control signal flat, not every such curve was filed as active; inconclusive = small, poorly fitted or top-dose-only effect, or effect the other way, or a change in a side signal; the % refers to the signal ratio; note: potency is the fitted concentration of half-maximal effect; for activation: top concentration of the series differs between compounds; % of control where 0% means no effect); conditions: ME-180 HRE-bla reporter, beta-lactamase ratio, CoCl2, 17 h; activation: active compounds read high
Procedure, shortened: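 ME-180 cells carrying an HRE-driven beta-lactamase reporter were treated with compounds in a titration series plus an EC50 level of CoCl2 for 17 h at 37 degrees Celsius; CCF4 readout as the 460nm/530nm ratio gave AC50 values.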
Tags give direction and shape of the fitted curve or compound fluorescence and quenching.

| SMILES | activity change, negative = inhibition [1] | activity, negative = inhibition [2] | activation [3] | Potency [3] |
| --- | --- | --- | --- | --- |
| CCc1nc(N2CCCC2)c(C#N)c2c1CCCC2 | inconclusive: -64.5% [inhibitor] | inactive: -19.9% [at 17.2 µM] | inactive: -12% | – |
| CCOC(=O)c1[nH]c2ccc(OC)cc2c1NC(=O)CCN1CCCC(C)C1 (centres undefined) | active: -82.5% | inactive: 3.31% [at 17.2 µM] | – | inconclusive [inhibitor, partial curve] |
| CCOC(=O)c1[nH]c2ccc(OC)cc2c1NC(=O)CCN1CCc2ccccc2C1 | inconclusive: -74.8% [inhibitor] | inactive: -3.49% [at 17.2 µM] | – | inconclusive [inhibitor, partial curve] |
